# From the supplement of paper PMC10600219
# Structures can show the parent of a compound that is named as a salt. In all, about 2,800 compounds were measured (“cell viability relative to vehicle”: median about 1.1, lowest 2% from about 0.19 on). This is one part of the list.
# Test system: NCI-H2228 parental
# Assay: cell viability relative to vehicle (fraction of vehicle); NCI-H2228 is an ALK-positive lung cancer line and DTP means drug-tolerant persister; higher = less growth inhibition
# Conditions: 100 nM; treatment time 6 days
# Outline: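 The 3114-agent TargetMol anti-cancer compound library was tested at 100 nM for 6 days on parental NCI-H2228 cells and on persister cells derived with 1000 nM of a targeted drug for 13 days. ATP readout by the CellTiter-Glo 3D Cell Viability Assay gave cell viability relative to DMSO vehicle-treated cells.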
row,SMILES,cell viability
1,CC(C)NCC(O)c1cc(O)cc(O)c1 (centres undefined) [Orciprenaline sulfate],0.856
2,"CC(=O)/C(C)=N/O [2,3-Butanedione 2-Monoxime]",1.13
3,O=C1/C(=C/c2ccc(O)cc2)Oc2cc(O)ccc21 [Hispidol],1.13
4,O=C(O)CN(CCN(CC(=O)O)CC(=O)O)CCN(CC(=O)O)CC(=O)O [Pentetic Acid],1.1
5,C#CCN(C)CCCOc1ccc(Cl)cc1Cl [Clorgyline hydrochloride],1.03
6,CC(=O)NCCC(=O)O,0.856
7,COc1ccc2[nH]c(C(=O)c3ccccc3)cc2c1,0.197
8,O=C(/C=C/C=C/c1ccc2c(c1)OCO2)N1CCCCC1 [Piperine],1.07
9,O=C(O)C(S)=Cc1c[nH]c2ccc(F)cc12,0.99
10,O=c1c2ccccc2nc2n1CCc1c-2[nH]c2ccccc12 [Rutaecarpine],1
11,OC[C@H]1O[C@@H](n2cnc3c2N=CNC[C@H]3O)C[C@@H]1O [Pentostatin],1.14
12,CN(C)c1ccccc1CN1CCCN(Cc2ccccc2N(C)C)C1c1ccncc1,1.04
13,CCN(CC)Cc1cc(Nc2ccnc3cc(Cl)ccc23)ccc1O [Amodiaquine hydrochloride],1.23
14,C[C@H](CCOc1cccc(CC(=O)O)c1)N(Cc1cccc(C(F)(F)F)c1Cl)CC(c1ccccc1)c1ccccc1,1.02
15,COc1ccccc1N1CCN(CCCNc2cc(=O)n(C)c(=O)n2C)CC1 [Urapidil hydrochloride],1.1
16,COc1ccccc1N1CCN(CCCNc2cc(=O)n(C)c(=O)n2C)CC1 [Urapidil],1.08
17,O=C(Nc1cccc(Nc2ncc(Br)c(NCCc3cnc[nH]3)n2)c1)N1CCCC1,1.3
18,COc1nc(N)nc2c1ncn2[C@@H]1O[C@H](CO)[C@@H](O)[C@@H]1O [Nelarabine],1.08
19,COc1cccc(-c2cc(F)ccc2[C@H]2Cc3nc(N)nc(C)c3C(=O)N2)n1,0.171
20,CN(C)CCCn1cc(C2=C(c3c[nH]c4ccccc34)C(=O)NC2=O)c2ccccc21 [Bisindolylmaleimide I],1.07
21,O=C1CCC(N2C(=O)c3ccccc3C2=O)C(=O)N1 (centres undefined) [Thalidomide],1.01
22,c1cn2cc(-c3ccc4cn[nH]c4c3)nc(Nc3ccc(N4CCOCC4)cc3)c2n1 [Entospletinib],0.904
23,C[C@H](CCC(=O)NCCS(=O)(=O)O)[C@H]1CC[C@H]2[C@@H]3[C@@H](O)C[C@@H]4C[C@H](O)CC[C@]4(C)[C@H]3CC[C@]12C [Tauroursodeoxycholic Acid],1.23
24,Cc1nc2n(c(=O)c1CCN1CCC(c3noc4cc(F)ccc34)CC1)CCCC2O (centres undefined) [Paliperidone],1.17
